Sequences and labels used below:
B1: LINE1-mini (parent)
chain: GGCAGAGCUCAACACAGCGUGGCAAAGUGGCUGUGGCUAGACUGCC

The source gives no read counts; variants with many changes may rest on few reads.

The data set covers variants of B1. The data set can be described thus: self-cleavage, relative activity (ratio to wild type); higher = more cleavage; in vitro, sequencing; the parent is a self-cleaving ribozyme.
For the variant C23A G36U C37A U38C, the self-cleavage amounted to 0.03.
Regarding G22U G30C A39C, the self-cleavage was 0.1.
Regarding G22A G30C C31G G36C, the self-cleavage turned out to be 0.09.
For G21A A25C G35A the value was 0.19; for G22C U28A G30U C45A, 0.11.
Regarding G22A A24U G30U A39U G40C U43A C46A, the self-cleavage was 0.05.
For the variant G22U U34C A39U, the self-cleavage stood at 0.72.
The result for G22U G27A G36U G44A reads 0.1; that for G22C U34A G36U, 0.
Regarding G21U G36C C46A, the self-cleavage turned out to be 0.08.
Take C23A A25G C45U C46G: the self-cleavage worked out at 0.17.
The result for G22A G36U C45G reads 0.09; that for G22C C23U G30U C45U C46G, 0.14; that for G21A U34A C37U C46U, 0.01.
On to G21C A26G A39G, for which the self-cleavage stood at 0.03.
For C23A A24U G33C A39U the value was 0.02; for G22A U43C C45G, 0.02; for G22C G36U G40A, 0.05.
On to G21U G29C C46G, for which the self-cleavage amounted to 0.41.
Turning to G21C C23U G29A U32A G36U C37U, the self-cleavage is 0.03.
Turning to G21C G36U C37A, the self-cleavage was determined as 0.06.
For C23G U28A C45U the value was 1.32; for G21A A25G G27C C42G C46G, 0.26.
The result for G22U U28A G35A reads 0.17.
Consider G21U G27C C37A A41U, for which the self-cleavage amounted to 0.11.
As for G21U G27C G35A, the self-cleavage turned out to be 0.14.
As for G22C A25G G44A, the self-cleavage stood at 0.03.
For G21C G22U G33U the value was 0.19; for G21A A25G G35U, 0.06; for G21A A25G G35A, 0.09.
As for C23A G29A C42G, the self-cleavage was 0.
In the case of G22U G30A U38C A41C, the self-cleavage was determined as 0.03.
The result for G22A U28C G30C reads 1.6.
As to G22C G27U C31G A41U, the self-cleavage was 0.14.
Consider G22U U32G G40U C46A, for which the self-cleavage was 0.04.
Regarding G21U A25U C42G, the self-cleavage is 0.08.
For G22U G27A G33C G36C the value was 0.05.
The result for G21A G27A U32A G35U reads 0.06; that for G22A U28A U32A A39U, 0.05; that for G21U C31G G36U, 0.04.
Take G22A G35U C46G: the self-cleavage was 0.39.
For G22U G27U U28G U32A C37U, the self-cleavage came out at 0.02.
G21A G40C A41U C45A: the self-cleavage is 0.02.
In the case of G21C G29U C31U U34A G40C U43G, the self-cleavage amounted to 0.01.
Regarding G21U A26U C31A U34G, the self-cleavage worked out at 0.03.
The result for C23A G29A C46A reads 1.54; that for C23A U28C C37U, 0.02; that for G22U C23A U34C C42A, 0.09.
Consider G22U A25U A39U, for which the self-cleavage was found to be 1.37.
In the case of G21U G36U C45U, the self-cleavage turned out to be 0.08.
Take G22C C45A C46U: the self-cleavage was found to be 0.13.
Consider G22A G29C A41G, for which the self-cleavage worked out at 0.16.
With G21U G22U U32G, the self-cleavage turned out to be 0.26.
The result for G21U A25C U38G C45A reads 0.02.
As for G22A G27U U43A G44U, the self-cleavage was 0.09.
In the case of G22U G29C C31G C42A U43A, the self-cleavage came out at 0.12.
As for G21A A26U U32C, the self-cleavage stood at 0.08.
Turning to C23A G29A C37A G40U C46U, the self-cleavage is 0.07.
With G21U A26U U32A, the self-cleavage was found to be 0.06.
Consider G22A U28C G29U C37A U43A, for which the self-cleavage amounted to 0.02.
Take G22U G36A A39U: the self-cleavage amounted to 0.1.
In the case of G22C G30A C45A, the self-cleavage was 0.19.
As for C23G G35U G36U, the self-cleavage came to 0.07.
As to C23G A24C U32G, the self-cleavage amounted to 0.
The result for C23A G29A G35U reads 0.01; that for G21C G36A C37U C46G, 0.12; that for G22U A24C G40A, 0.06.
The result for G21U C37A A39U C42U reads 0.08; that for C23A G27C C37U, 0.03.
On to G21C U28C U38G, for which the self-cleavage is 0.01.
Take G21U G35U G40A C46U: the self-cleavage was 0.21.
In the case of C23G C37U G44U C46G, the self-cleavage stood at 0.01.
With G21U G27U G29U G36C, the self-cleavage came to 0.03.
As to G21A G30A G33A, the self-cleavage was determined as 0.1.
As for G22C A24G U32A G35A, the self-cleavage came to 0.05.
As to C23A G27U U34G U38A, the self-cleavage is 0.28.
Consider G22A C23G U28A, for which the self-cleavage amounted to 0.33.
For G22A A24C G33U C42G C46U, the self-cleavage is 0.14.
Turning to G21U G22A A24G U28G G29U U38C, the self-cleavage stood at 0.35.
For G22C U34C U43A the value was 0.02; for G22U C31U G33C, 0.05; for G21U U34C G40C, 0.02.
With G21U G22C A26G U38A C42G, the self-cleavage was 0.03.
As to C23G U32G C45G, the self-cleavage amounted to 0.04.
Regarding G22U U28C A41C C42A, the self-cleavage turned out to be 0.02.
With G22A C31U A41C G44A, the self-cleavage was 0.02.
The result for G21A G29A C37A reads 0.44.
For G22A C23A A24G U38C, the self-cleavage turned out to be 1.11.
For the variant G22U G29A C37G, the self-cleavage was 0.04.
With G21U G36A C37U G40C, the self-cleavage was 0.15.
G22A U34G U43C: the self-cleavage amounted to 0.01.
Consider G21U A25G C37U A39C, for which the self-cleavage stood at 0.1.
As to C23G A24C A39G, the self-cleavage stood at 0.05.
As for G22U G35A C42A, the self-cleavage stood at 0.01.
Take G21U G27C C31A: the self-cleavage turned out to be 0.13.
On to G21C C23U G27A C31U U34C, for which the self-cleavage is 0.06.
The result for G21C G29U G30U A41U reads 0.34; that for C23U A25U G35A C42A U43A C46U, 0.01; that for G22A U32A G35C C45A, 0.04.
The result for G21U C23U U28C C37G reads 0.01; that for G21C C23A G35C G44C, 0.04.
For G21U A25G G35C, the self-cleavage was determined as 0.06.
Turning to G21U U34A G36A C37G, the self-cleavage came to 0.02.
Regarding G21C A25U G30C C31A, the self-cleavage was 0.21.
G22A C23A U28C G40C C45A: the self-cleavage amounted to 0.04.
With G22A A26U G44A C45U C46A, the self-cleavage turned out to be 0.02.
On to G21A U43A C46G, for which the self-cleavage is 0.
Regarding G21A G29U U34G, the self-cleavage was found to be 0.49.
In the case of G21U U34G U43A, the self-cleavage turned out to be 0.01.
For G21C G30A A39U the value was 1.61; for G21U G29C A39C, 0.03.
C23G A26U U28G C31U G36U: the self-cleavage is 0.01.
Take C23G G27C G40C: the self-cleavage was 0.03.
Turning to C23A A26C G30U, the self-cleavage came out at 1.05.
The result for C23A U28C G29C G44C reads 0.03; that for C23A A25U C42U C45U, 0.17.
On to G22U G27A G30U G35U G36U, for which the self-cleavage was 0.39.
For the variant G22U U38G U43A, the self-cleavage came out at 0.03.
As to G22A G30C C37A U38C, the self-cleavage is 0.04.
As to G22A C23A A41U, the self-cleavage turned out to be 0.24.
For C23G G30A G40A the value was 0.11; for G21C C23U A24U C42A, 0.3.
With G22U G33C C45U, the self-cleavage amounted to 0.05.
Consider G22U C37A A39U, for which the self-cleavage came out at 0.11.
For G22A G29U C31A U32A the value was 0.05; for G21U G22U C31U U43G, 0.
Turning to G21A G29U G40U C45A, the self-cleavage worked out at 0.05.
As for G21C G27C U28A, the self-cleavage is 0.47.
In the case of C23G C37U C46A, the self-cleavage turned out to be 0.03.
The result for G22A G27C U34A reads 0.1; that for G22C C23U A39U, 0.46; that for G22C U34G C37U, 0.04.
The result for G21U A26G G27C G36C reads 0.05; that for G21A U32G U34A C42U, 0.03; that for G22U C31A U32G U34G, 0.08.
G21C U28A G29U: the self-cleavage was 0.1.
For G22C C42A C46A the value was 0.08; for G21C G22A U28G, 0.13; for G21U C42G C46U, 0.02.
G22A U38G A39U U43C: the self-cleavage came to 0.03.
With G22C U28A G29C C37G C46A, the self-cleavage was determined as 0.01.
Take C23G A26C A41C C45U: the self-cleavage worked out at 0.05.
For G21U A24C G44U, the self-cleavage amounted to 0.16.
For G22A G30U G40U the value was 0.17; for G22C C23A A39U, 0.44.
Turning to C23A G40U C42U, the self-cleavage amounted to 0.08.
Regarding C23A G40U C42G, the self-cleavage is 0.07.
For G22C A24U G27A the value was 0.38; for C23A G33A G35U G40A, 0.07.
In the case of C23A U28A G40U C46A, the self-cleavage turned out to be 0.32.
For G22A A39G C42A, the self-cleavage was determined as 0.03.
Consider C23G A24G C37G, for which the self-cleavage is 0.04.
Turning to G22A C31A G33C, the self-cleavage stood at 0.13.
For G22U A26U G27C the value was 0.47.
Turning to G22C U34A C37G C42A U43G, the self-cleavage came to 0.01.
As to G22C C31A G44U, the self-cleavage is 0.05.
For G21A C31U U34G, the self-cleavage was 0.03.
Consider G22C A24C C31A G36C, for which the self-cleavage amounted to 0.06.
As to G21A G30U A39U, the self-cleavage worked out at 0.96.
For G21C G27A U38G A39U the value was 0.05; for G22C A26G G33U, 0.22.
As for G22U A26U G27A G29U G44U, the self-cleavage turned out to be 0.19.
As for C23A G33U G40A, the self-cleavage was found to be 0.11.
The result for G22A A24C C45G reads 0.52; that for G21C G36U C45A, 0.03; that for C23A C37A A39G, 0.02.
Consider G21A G36C C45A, for which the self-cleavage was determined as 0.07.

The values above are taken from the RNAGym collection of RNA variant scans (doi:10.7554/elife.90254).
